Experimental findings from US20260274910A1, “SINGLE FUSION PROTEIN AND PHARMACEUTICAL COMPOSITION” (MEDI&GENE INC., priority 2023, published 2026) are described below.

Test [1] relates to mice in which non-alcoholic fatty liver was induced. Nature of the test: GAN diet-induced non-alcoholic fatty liver model. The test is classed as in vivo, C57BL/6J mice. Particulars: 2.5 mg/kg subcutaneous 6 times a week for 5 weeks. As to the method: 5-week-old female C57BL/6J mice were obtained and subjected to an acclimation period of 1 week, and then fatty liver induction was performed. The housing conditions of all the mice were always maintained at 18~24° C., 50~60% humidity, and ad libitum feeding was carried out during both the acclimation period and fatty liver induction period. After completing the acclimation period of 1 week, the mice were provided with a GAN diet (Gubra Amylin NASH diet) for 38 weeks to induce non-alcoholic fatty liver. The detailed composition of the product is as Table 8 below.
The mice in which non-alcoholic fatty liver was induced were divided into a control group (n=7) and an experimental group (n=6). PBS to the control group, and the fusion protein (SEQ ID NO: 14) to the experimental group were subcutaneously administered at a dose of 2.5 mg/kg 6 times a week, for 5 weeks. At the end of the test, the weights of adipose tissue and liver tissue were measured, and biochemical tests (OT, PT, Cholesterol, TG), and histological staining (Masson's trichrome) were performed. Masson's trichrome staining was used for analyzing the degree of collagen accumulation, which is the cause of liver fibrosis induced from fatty liver disease, and inflammatory cell infiltration, which is the cause of inflammation, since it stains collagen fibers blue, cytoplasm red, and cell nuclei dark brown.

The subject of test [2] is sciatic nerve transection mouse model. Kind of test: Sciatic nerve transection muscle atrophy model. The test is classed as in vivo, C57BL/6 male mice. As to conditions: versus control. On the procedure:
The effects of the test substances on muscle diseases accompanied by muscle loss were evaluated using a sciatic nerve transection mouse model.
In the sciatic nerve transection mouse model, muscle atrophy was induced as follows. The thigh muscles of C57BL/6 male mice were transversely incised to expose sciatic nerves, and then the sciatic nerves were transected to weaken the nerves in the muscle tissue and induce muscle atrophy. The incised site was sutured, and a recovery period of one week was provided after the surgery.
To each mouse after the recovery period, the test substance (Control-PBS; and fusion protein) assigned to each group was subcutaneously injected at a concentration of 5.0 mg/kg 6 times a week for 9 weeks (Control: n=8, No. 13: n=9, No. 14: n=9, No. 15: n=8). The effects of improving muscle loss were measured with an X-ray body composition analyzer (DXA assay) in the fourth week of test substance administration, and the effects of improving muscle function was compared by measuring grip strength.

The subject of test [3] is Duchenne muscular dystrophy mouse model (C57BL/10ScSn-Dmdmdx/J). Nature of the test: Duchenne muscular dystrophy mouse model. It counts as in vivo. Particulars: 5 mg/kg subcutaneous 6 times a week for 3 weeks; versus Control. As to the method: The effects of the test substances on muscle diseases accompanied by muscle loss were evaluated in a Duchenne muscular dystrophy mouse model (C57BL/10ScSn-Dmdmdx/J) causing progressive muscle degeneration by genetic modification.
The mouse model was divided into a Control and an experimental group. PBS to the Control, and the fusion protein (SEQ ID NO: 2) to the experimental group were subcutaneously injected at a concentration of 5 mg/kg 6 times a week for 3 weeks. After 3 weeks, it was confirmed whether the fusion protein (SEQ ID NO: 2) improved the decline in muscle function caused by muscle degeneration by conducting a grip strength test (Control: n=9, No. 2: n=8).

In test [4] the test system is SH-SY5Y dopaminergic neuron cell line. Nature of the test: MTT cell viability of neuron cells under rotenone. It counts as cell-based. Particulars: 1 µM rotenone + 100 nM test substance, 24 hours; compared with rotenone alone. On the procedure: The SH-SY5Y dopaminergic neuron cell line was treated with 1 µM of a toxic substance, rotenone and 100 nM of each test substance simultaneously. After 24 hours, the MTT cell viability or the effect of reducing reactive oxygen was observed.

Test [5] relates to diet-induced obesity-induced mouse model. Nature of the test: Diet-induced obesity-induced model study I. The test is classed as in vivo, C57BL/6N mice. As to conditions: versus Control. On the procedure: In order to confirm the efficacy of the fusion protein against diseases according to obesity and further, sarcopenic obesity, disease induction was carried out in mice through diet-induced obesity. As an animal model, C57BL/6N was used, and was used after an acclimation period by providing normal diet for 1 week, and the housing conditions were maintained at 18~24° C., and 50~60% humidity, and ad libitum feeding with free access to feed and water was carried out during both the acclimation period and experimental period. In the mice after the acclimation period for 1 week, obesity was induced by a high-fat diet (Research Diets, Inc. D12492) to induce disease.
The mice in which obesity induction was completed were divided into a Control and an experimental group (Control: n=8, No. 1: n=6, No. 2: n=6), and PBS to the control group, and the fusion protein (SEQ ID NO: 1, 2) to the experimental group were subcutaneously injected at a dose 5 mg/kg 6 times a week for 10 weeks and the efficacy thereof was observed.

Test [6] has as its system db/db mouse model (C57BLKS/J-db/db). Kind of test: Leptin receptor-deficient diabetes model study II. It counts as in vivo. As to conditions: 5 mg/kg subcutaneous 6 times a week for 11 weeks; versus control. The text has this:
(§1) In order to confirm efficacy of the fusion proteins in a diabetic pathological condition in which impaired glucose tolerance by genetically inducing mutation to a leptin receptor gene, a 9-week-old db/db mouse model (C57BLKS/J-db/db) was used. The mice after a one-week acclimation period were divided into a control (n=9) and an experimental group (fusion protein SEQ ID NO: 2; n=7). The mice was provided with a normal diet, and for 11 weeks, PBS to the control, and the fusion protein to the experimental group were subcutaneously injected at a dose of 5 mg/kg 6 times a week, and the efficacy thereof was observed.

Test [7] shares this test system. Kind of test: Leptin receptor-deficient diabetes model study I. It counts as in vivo. Particulars: 5 mg/kg subcutaneous 6 times a week for 4 weeks.
Excerpt: as §1, with “7-week-old” for “9-week-old”, “(n=7)” for “(n=9)”, “n=8).” for “n=7).”, “4” for “11”

Setting [8] is: 5 mg/kg subcutaneous 6 times a week for 10 weeks.
Setting [9] is: after 3 weeks of administration.

B1: SEQ ID NO: 14: Recombinant protein: Shortened substance (1-60)-Shortened linker-Fc fusion (protein)
chain: GSDQSENVDRGAGSIREAGGAFGKREQAEEERYFRAQSREQLAALKKHHEEEIVHHKKEIGGGGS[human IgG1 Fc with C220Q (EU numbers) omitted here]
As for B1, the “Liver (g ± SD)” value in test [1] (control 1.64 ± 0.20) was determined as 1.59 ± 0.11 g. Besides, the “Epididymal Fat depot (g ± SD)” value in test [1] (control 2.62 ± 0.67) is listed as 1.50 ± 0.72 g. Besides, the “TG (mg/dl ± SD)” value in test [1] (control 13.14 ± 9.58) worked out at 10.27 ± 2.80 mg/dL. Further, the “BW (g ± SD)” value in test [1] (control 35.64 ± 3.07) amounted to 30.53 ± 4.62 g. In addition, the “OT (U/L ± SD)” value in test [1] (GOT, AST, control 285.66 ± 46.95) worked out at 196.70 ± 38.38 U/L. In test [1] (GPT, ALT, control 138.46 ± 29.03), the “PT (U/L ± SD)” value amounted to 94.07 ± 36.03 U/L. For the same molecule, in test [1] (Masson's trichrome staining, control 7.08 ± 3.81), the “Collagen Area (% ± SD)” value came out at 5.67 ± 3.01%. Besides, the “Cholesterol (mg/dl ± SD)” value in test [1] (blood, control 128.57 ± 21.32) was 102.30 ± 16.69 mg/dL. Besides, in test [2] (5.0 mg/kg subcutaneous 6 times a week for 9 weeks), the Grip strength entry is recorded as “higher performance”. For the same molecule, the “Muscle mass (DXA assay)” value in test [2] (5.0 mg/kg subcutaneous 6 times a week, fourth week) was “significantly increased”.

B2: SEQ ID NO: 2: Recombinant protein: Shortened substance (1-60)-repeat-type linker-Fc fusion (mutant modified) (protein)
chain: GSDQSENVDRGAGSIREAGGAFGKREQAEEERYFRAQSREQLAALKKHHEEEIVHHKKEIGGGGSGGGGSGGGGS[human IgG1 Fc with changes omitted here]
In the case of B2, the Grip strength result in test [3] is listed as “significantly improved”. Besides, the “Cell viability (MTT)” value in test [4] was “significantly increased”. In test [5] (setting [8]), the Blood sugar result is reported as “reduced”, the Final body weight result is recorded as “reduced at a significant level” and the “Size of lipid droplets in liver tissue” value was “significantly reduced”. In test [5] (setting [9]), the “Fat tissue mass (DXA assay)” value is given as “significant decrease” and the “Muscle mass (DXA assay)” value is given as “maintained”. In test [6], the Blood glucose level entry is “significantly reduced”. Also, the “Muscle tissue ratio (% ± SD)” value in test [7] (control 47.59 ± 3.43) was found to be 49.90 ± 3.26%. Also, the “Fat tissue ratio (% ± SD)” value in test [7] (control 52.41 ± 3.43) is listed as 50.10 ± 3.26%. The “Muscle function (grip strength test)” value in test [7] (versus control) is recorded as “significantly improved”.
